Laboratory results taken from the RNAGym collection of RNA variant scans (doi:10.1093/nar/gkz1192).
The source gives no read counts; variants with many changes may rest on few reads.

B1: CPEB3 Ribozyme (parent)
chain: UAACAGGGGGCCACAGCAGAAGCGUUCACGUCGCAGCCCCUGUCAGAUUCUGGUGAAUCUGCGAAUUCUGCUGUAUAUCUC

Variants of: B1
Assay: self-cleavage, relative activity (ratio to wild type); higher = more cleavage; in vitro, sequencing
Method in brief: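 Relative activity was defined as the cleaved/total read fraction for a variant divided by the same fraction for the unmutated ribozyme. CPEB3 self-cleaving ribozyme libraries were made by rounds of error-prone PCR, barcoded, and transcribed in vitro with T7 RNA polymerase for 5 hours at 37°C, and cleavage ran through transcription plus a 15 min DNase I step before EDTA. Illumina sequencing of template-switched reverse transcripts gave the reads, and DNA sequencing mapped the barcodes. Averages come from three batches, using variants with at least 5 reads.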

Variant | self-cleavage
C17G U54C C59U | 0.34
A18G A35G A56G | 1.03
C17G C40G G73U | 0.25
A18G A20G A45G A56G | 0.23
A18G G30A A56G | 0.14
A18G A28G U31C U48C U69A | 0.06
A18G U25C C32U U66C | 0.21
C17U C62U U72C | 0.11
A18G A35G A45G A47U U48C A75C | 0.26
A18G G24A U26A U49C U66C U78C | 0.1
A18G C34U A47G U74C | 0.34
A18C C39A U43C | 0.35
C17A U25C C79A | 0.06
A18G U51A C71U A75U U80C | 0.52
C17U U49C U76C U78C | 0.19
A18C U25C G53A U54C | 0.27
A18G C34U C40A | 0.07
A18G A28U U72G | 0.49
A18G C29U G42A A56G G61C | 0.11
A18C G46U U80A | 0.11
A18G U43C U54A | 0.47
A18G U25C U69C | 0.32
A18G A64G U74C | 0.76
A18G G53U U54C U78C | 0.2

Variant | self-cleavage
A18G C23A U25C U41C U54C U78C | 0.27
A18C A21G G24A U43C | 0.06
A18G A21G U41A G52A | 0.34
A18G U31C U67C | 0.07
A18C U49C U54C | 0.33
A18G A20G U25A U26C C34U A45G U51C | 0.15
A18C U51C U67C G70C U80C | 0.13
A18G G19A C27U U41C U54C U69C | 0.11
A18G A28G A64G U80A | 0.3
A18G U25C G30U U41C U54G A64U | 0.22
A18C A35G A47G U54C | 0.81
A18G U26A A28G U60A | 0.08
A18G A20G G36U U43C A47G U76C | 0.15
A18G C59A U60C A64G U67C | 0.09
A18G U51A U60G U69A | 0.36
A18G U26A A65G U72A | 0.21
A18G U43C A47U U51C A65U | 0.02
A18G C27A A47G A75U | 0.21
A18G U26A U31C U41C U78C | 0.03
A18C A57G U67C | 0.09
A18G A21G C40A U41G A47U C62U U76G | 0.04
A18G A35U A45U A47G U80C | 0.2
A18G A20U U26A U78C | 0.15
A18G C32U A35G A45G U72A | 0.22

Variant | self-cleavage
A18G U41A A56G U78C | 0.08
A18G A21U U66C C71A A75G | 0.13
A18C U26C A56G | 0.03
A18G U51A U54C A64U | 0.32
C17G A21U A35G | 0.61
A18G U43A U49C U78A U80C | 0.34
A18G A28C U54G | 0.24
A18C G33A A47U U48C U49C C62U | 0.06
A18G A20G U41C U58C A65U U66C U72A | 0.27
A18C A28G U48C U54C U66C U80C | 0.06
C17G G24A U26A C32A U78A | 0.06
A18G A28C U43C | 0.27
C17U A45U A65G | 0.12
A18G A28G U49C A75G | 0.07
C17U A20U U25C U67C U80A | 0.02
C17G U31G U41A | 0.26
A18G C23U U25C | 0.36
C17U A56G G61A A65G | 0.09
A18G U26A U69G | 0.3
A18G C23U U31C U49C | 0.06
A18G U25C A45U U60C A64U A75G A77G | 0.08
A18G U25C U72C | 0.18
A18G A56G A57G | 0.14
C17A U25A U26C A57G U66A | 0.05

Variant | self-cleavage
C17G U26C U31G U58C A75G | 0.03
A18G U41G U74A | 0.11
A18G A20U U26C A28U C29U U31A U49C | 0.05
A18G G70A U72C | 0.34
A18G A64G C79A U80C | 1.07
A18G U25A U67C U76C | 0.06
A18G A20C U25A U41C U67C | 0.25
A18G A20G U26G U41A U60C | 0.05
A18G G24C A57G A64U | 0.06
A18G U26A A35U U41C U60A A65G U72C | 0.07
C17A U43C U49C U54C A56U | 0.15
A18C G22C G70A U80A | 0.05
A18G U25A G36U U54A A64U U72A | 0.05
A18G U25A U69C U78A | 0.1
A18G U48A U49C | 0.44
A18G C40U U51C G52A A56U G61U A75G | 0.07
C17U G24A U51C U69C | 0.06
A18G G22C U49C C81A | 0.87
C17G G33A U72C | 0.36
C17G U31C U67C | 0.14
A18G A20G U51A U54C A57U | 0.43
C17U U25C C68U | 0.42
A18C U60C U67C U80C | 0.21
A18G G30A C38A U49C U51C U72A | 0.06

Variant | self-cleavage
A18G A28G A47G C68A | 0.08
A18C U25C U51C | 0.19
A18C U25C A28G C34U C40U U80A | 0.06
C17U A21G A28G U31C U78C U80C | 0.1
A18G U41C A77U | 0.58
C17U U25C C29U U31G U41C U51A U66G | 0.05
C17A U31A U78C | 0.31
C17U G19A U25A U41C U54G | 0.07
A18G G24A A65G U69A | 0.05
A18C A28U U60A | 0.16
C17U A21G U31G A47C U49C A64G U76C | 0.11
A18G U49A A64G U78C | 0.29
A18G A21G C29U | 0.12
A18C A20G C27G U76C | 0.17
A18G U25C G61C U66C U69C | 0.14
C17U A45G A47G U67A A77G | 0.06
A18C A20U U43C U48C G70A | 0.05
A18G G33A U58C | 0.16
A18G A35U U60A | 0.1
C17U U26A U80A | 0.62
A18G U41A U51C U72C | 0.11
C17U U41A U54A | 0.16
C17G A47G A65G U69C | 0.25
A18G U26A C29U A35G A56C G63A | 0.29

Variant | self-cleavage
A18G C27U A57G | 0.11
A18G G22A A64C U69A A77G | 0.09
A18G U41A U51C | 0.22
C17U U41C A65U | 0.16
C17U U26A U43C A47U U51A C62U | 0.05
A18G A21G U25C A28U U51C A56G U67C | 0.02
A18C U26A A35G A45U U76C | 0.35
C17U A56G U80C | 0.91
C17U A21G U41C A56G A75U | 0.13
A18G C34G U48C U78A | 0.07
A18C U78C C81U | 0.5
A18G A64U U67C | 0.14
A18G A64U C71U | 0.45
A18G U49A G70U | 0.17
A18G G19A A64G | 0.24
A18G C50U U76C U80C | 0.94
C17G A21G U25C A45G U74A | 0.05
A18G C29U A35U U48G U54A A64G | 0.08
C17U U58C A64G U66C G73U | 0.17
A18G U31C G33A G42A A57G U72G | 0.09
C17U U31C U41A A64C U80C | 0.18
A18G A65G U76A U78C | 0.28
A18G A28G U80A | 0.37
A18G U49C A56G A57U | 0.13

Variant | self-cleavage
A18G A21G C34G U67C | 0.06
A18G A35G U69A | 0.99
A18C U25C A35G C38U A65G U74C | 0.32
A18G U31C U66C | 0.37
A18G C38U A65U | 0.13
A18G A28G U41G U60C | 0.27
A18G U31G U54A | 0.43
A18G U31G U54C U60A U66C U78C U80C | 0.08
A18G U41C U69C U80A | 1.14
A18G A20G A64G U66C | 0.19
A18G U25C U69C U74A | 0.11
A18G A56G C59U U72C G73A | 0.2
A18G A21U C68A | 0.23
A18G G30A U43C A45U U66A U67C | 0
A18G G52A U76C | 0.32
C17G G33A C39A | 0.31
A18G G24A U43C U67C | 0.06
A18C C23U A28U U41C A45G | 0.17
A18C U25A A47G U58C | 0.25
C17U A20G A21U | 0.34
A18G A21G U49C U74C | 0.42
A18G A20G G24A U41A U51C U60C A65G | 0.33
C17U U41A U48C U80A | 0.06
